Measured values as given in PubChem BioAssay AID1645887 (National Center for Advancing Translational Sciences (NCATS), 2021).
Several values for one entry are separate records, joined by “and”; a condition that tells them apart may be missing. Equal entries are not always repeated. Hit rate of the full screen: of about 16,000 compounds, about 40 (0.2%) were called active. Not shown: some 1% with an inconclusive outcome. Calls come from the whole dose curve; as a rule, active = well fitted activation curve with a large enough effect; inconclusive = small, poorly fitted or top-dose-only effect, or another doubt; inactive = no such curve, though single readings can be large or run the other way. The list shows a part of the results.

Target: Rap guanine nucleotide exchange factor 4 (Homo sapiens) (UniProt Q8WZA2)
Chain of UniProt Q8WZA2 (Q8WZA2 whole entry, looked up): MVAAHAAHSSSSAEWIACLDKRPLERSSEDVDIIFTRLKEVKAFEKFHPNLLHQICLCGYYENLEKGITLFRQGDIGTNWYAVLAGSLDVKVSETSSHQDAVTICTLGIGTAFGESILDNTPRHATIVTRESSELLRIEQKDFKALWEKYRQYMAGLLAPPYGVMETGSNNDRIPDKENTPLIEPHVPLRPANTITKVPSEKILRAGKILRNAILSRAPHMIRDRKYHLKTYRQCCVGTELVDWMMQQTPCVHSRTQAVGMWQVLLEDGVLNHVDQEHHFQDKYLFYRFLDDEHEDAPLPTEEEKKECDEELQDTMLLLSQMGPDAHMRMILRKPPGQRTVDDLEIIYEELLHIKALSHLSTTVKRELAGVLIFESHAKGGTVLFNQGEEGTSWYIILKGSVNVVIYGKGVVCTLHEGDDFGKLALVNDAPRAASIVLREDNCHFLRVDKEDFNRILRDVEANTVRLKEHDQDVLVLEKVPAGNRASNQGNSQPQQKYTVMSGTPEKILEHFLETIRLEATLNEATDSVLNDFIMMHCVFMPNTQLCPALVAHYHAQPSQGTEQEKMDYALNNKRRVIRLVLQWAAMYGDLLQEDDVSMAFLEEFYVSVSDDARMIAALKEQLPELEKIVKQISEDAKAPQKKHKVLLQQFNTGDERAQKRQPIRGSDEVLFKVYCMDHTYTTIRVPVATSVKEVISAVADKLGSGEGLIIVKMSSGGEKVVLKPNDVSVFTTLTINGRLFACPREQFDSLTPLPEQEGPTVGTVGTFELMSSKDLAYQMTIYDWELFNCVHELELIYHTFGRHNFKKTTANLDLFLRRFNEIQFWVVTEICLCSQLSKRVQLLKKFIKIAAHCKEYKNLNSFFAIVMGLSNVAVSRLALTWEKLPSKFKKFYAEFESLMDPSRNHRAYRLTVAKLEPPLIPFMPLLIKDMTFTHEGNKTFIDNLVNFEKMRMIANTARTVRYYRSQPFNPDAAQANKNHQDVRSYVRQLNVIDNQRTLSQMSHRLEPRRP
Assay: Validation qHTS for agonist of cAMP-regulated guanine nucleotide exchange factor 4 (EPAC2);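 note: exchange makes BODIPY-GDP fluorescence drop when released from Rap1B; series mostly up to about 150 µM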
Conditions: EPAC2 Rap1B BODIPY-GDP exchange, fluorescence; activation: hits give high values
Procedure, shortened: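 Fluorescent exchange assay: 100 nM EPAC2 with 250 nM RAP1B-BODIPY-GDP and 50 uM GDP; compound added, 5 min at room temperature, then read (ex 480/em 540 nm) every 5 min for 30 min. Normalized to 6.5 mM cAMP agonist control.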
% is set by controls: 0 for no effect and ±100 for the full control effect.

activation, inactive:
CC(=O)OCCC(C)CCC=C(C)C (stereo not drawn) -19.9%
COc1ccc(F)c(CN2CCC3(CCC(CNC(=O)c4cc(C)nn4C)O3)CC2)c1 (stereo not drawn) -15.5%
N[C@H](Cc1c[nH]c2ccccc12)C(=O)O -18.1%
COC(=O)c1cc(OC)c(=O)c2c(OC)c(OC)ccc2c1 -25.7%
CN(C)c1ccc(-c2cc(-n3ccnc3)ncn2)cc1 -11.2%
COc1cccc(-c2nc(N3CCN(C)CC3)c3ccccc3n2)c1 -6.1%
O=S1(=O)CCOCCCN1Cc1ccc(Cl)cc1 -25.8%
Cc1cc(NC(=O)Nc2ccc3c(ccn3C)c2)sn1 -25.5% and -3.8%
N#CCCn1c(=O)cnc2cnc(N3CCNCC3)nc21 -4.04%
COC(=O)C1NC(=O)N2C(C(=O)OC)C(C)(C)S[C@H]12 (stereo partly drawn) -28.7%
Cc1cnc(CNc2cc(-c3ccc4c(c3)OCO4)ncn2)cn1 -11.7%
COCCn1c(=O)cnc2cnc(N(C)C)nc21 -3.55%
COc1ccc2c(c1)OC(C)CN(CCNC(=O)C1CCOC1)C2 (stereo not drawn) -17.3%
O=C(CCCN1CCN(c2ccccn2)CC1)c1ccc(F)cc1 -10% and 8.93%
CC(=O)N1CCC[C@H]1C(=O)NCC1Cc2cc(Cl)cc(-c3ccc4[nH]ccc4c3)c2O1 (stereo partly drawn) -13.1%
OC(C1=C/C(=C\c2ccncc2)c2ccccc21)c1ccncc1 (stereo not drawn) -21.2%
O=C(NCCc1ccccn1)C1CC12CCN(C(=O)c1cccc(C(F)(F)F)c1)CC2 (stereo not drawn) -3.99%
C[C@@H]1CNCCN1S(=O)(=O)c1cccc2cnccc12 -23%
CC(C)CCCC(C)C1CCC2C3CC(=O)[C@H]4CC(O)CC[C@]4(C)C3CC[C@@]12C (stereo partly drawn) -13%
COCC(=O)Nc1cc(C(=O)N2CC3CCC2C3)c2c(c1)nc(-c1ccncc1)n2C (stereo not drawn) -7.29%
C[C@@H](CN=[N+]=[N-])CN1CC[C@H](O)CCC1=O -8.93%
O=C(C[n+]1cc(Br)cc2ccccc21)c1ccc(F)cc1 -51.8%
CCC(C)[C@H]1COCCS(=O)(=O)N1Cc1ccc(Cl)cc1Cl (stereo partly drawn) -7.64%
Cc1c(C(=O)NCc2ccccc2Cl)sc2ncnc(NCC3CCCO3)c12 (stereo not drawn) -8.89%
COc1ccccc1C1CN(CCNC(=O)c2cscn2)Cc2ccccc2O1 (stereo not drawn) -13.1%
C#C[C@]1(O)CCC2C3CCC4=C(CCC(=O)C4)C3CC[C@@]21C (stereo partly drawn) 19%
CS(=O)(=O)N1CCC2(CC1)CN(C(c1ccccc1)c1ccccc1)C2 -6.97%
COc1ccc(NC(=O)N2CCCC3(CCNCC3)C2)cc1 -4.04%
Cc1cnc(CNc2nc(-c3c(C)noc3C)nc3ccccc23)cn1 -15.6%
Cc1cccc2c(C(O)c3cn(C)c4ccccc34)c[nH]c12 (stereo not drawn) -24.9%
Cc1cc(CNC(=O)c2cnn(-c3ncc4c(n3)-c3ccccc3CC4)c2C2CC2)on1 -4.61%
COc1ccc(-c2c(O)c3c(OC)c4c(cc3oc2=O)OC(C)(C)CC4)cc1 5.29%
CCCCC/C=C/C=C1/C(=O)C=C[C@@H]1C/C=C\CCCC(=O)O -4.08%
Cc1cnc(C)c(-c2cccc3c2OC(CNC(=O)C2(c4ccc(Cl)cc4)CC2)C3)n1 (stereo not drawn) -19.5%
CCN1CCN(C(=O)c2sc3ncnc(NCC4CCCO4)c3c2C)CC1 (stereo not drawn) -6.49%
C[C@@H](CN1CCC(Cc2ccccc2)CC1)[C@@H](O)c1ccc(O)cc1 -17.8% and -20.7%
CCCCC[C@H](O)CC[C@H]1[C@H](O)CC(=O)[C@@H]1CCCCCCC(=O)O -3.44%
CC1CC(OC(=O)c2ccccc2O)CC(C)(C)C1 (stereo not drawn) -10.1% and -4.57%
COC(=O)[C@H](NC(=O)c1cc(-c2ccccc2)nc2ccccc12)c1ccccc1 -14.5% and -35.2%
CC(=O)OC1CC[C@@]2(C)C3CC(=O)[C@]4(C)C(C(C)=O)=CCC4C3CC[C@H]2C1 (stereo partly drawn) -7%
CN(C)C(N)=NCCC[C@H](N)C(=O)O -30.1%
COC(=O)C1=C(C#N)NC(C)=C(C(=O)OC(C)C)C1c1cccc([N+](=O)[O-])c1 (stereo not drawn) -14.1%
N#Cc1cc2nc(O)c(O)nc2cc1[N+](=O)[O-] -4.87% and -26.5%
Nc1ccc(S(=O)(=O)NCc2ccccc2)cc1 -17.6%
NC(=O)c1ccccc1-c1nc(-n2ccnc2)c2ccccc2n1 -6.32%
COCC(=O)Nc1cc(C(=O)N2CCCCC2c2nccs2)c2c(c1)nc(-c1ccncc1)n2C (stereo not drawn) -6.37%
CC1(C(=O)O)NCCc2cc(O)c(O)cc21 (stereo not drawn) -3.09%
Cl/C(=C\n1cncn1)c1ccc(Cl)cc1Cl -16.3%
CCC(=O)NC1Cc2ccccc2C(c2ccccc2)C1 (stereo not drawn) 1.82%
O=C1C=CC2=C3c4cc(O)c(O)cc4C[C@]3(O)COC2=C1 -18.1%
COc1ccccc1C(=O)N(Cc1cc2cccc(C)c2nc1N1CCC(O)CC1)C1CC1 -12.8%
NC(N)=NCCC[C@@H](N)C(=O)O -0.715% and 3.02%
COc1cccc(-c2nccc(NCc3cnc(C)cn3)n2)c1 0.554%
CCNc1ncc2nc(-c3cc(F)cc(F)c3)c(=O)n(-c3ccccc3)c2n1 26.9%
Cc1cnc(-n2ncc(C(=O)NCc3ccccn3)c2C2CC2)nc1-c1cccs1 -5.87%
COC1C(O)C(CO)OC1n1cnc2c(=O)[nH]c(N)nc21 (stereo not drawn) -12.6%
O=C1C[C@H]2C=CCc3cccc(c32)CN1Cc1ccccc1 -25%
CNc1ncnc2ccc(-c3cccc(NS(C)(=O)=O)c3)cc12 -3.37%
